Assay results taken from publication PMC4336329 (PLoS ONE, 2015).
Out of some 310,000 compounds screened, about 14,000 (4.5%) showed an effect of 50% or more. Effects have a minus sign here. This is one part of the list.

target: human ether-à-go-go-related gene (hERG) potassium channel (human, UniProt Q12809); test: primary screen, population patch clamp on CHO cells stably expressing hERG
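Note: peak tail current of the secondary pulse compared with the same well before compound.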

Chain of human ether-à-go-go-related gene (hERG) potassium channel (Q12809 whole entry, looked up): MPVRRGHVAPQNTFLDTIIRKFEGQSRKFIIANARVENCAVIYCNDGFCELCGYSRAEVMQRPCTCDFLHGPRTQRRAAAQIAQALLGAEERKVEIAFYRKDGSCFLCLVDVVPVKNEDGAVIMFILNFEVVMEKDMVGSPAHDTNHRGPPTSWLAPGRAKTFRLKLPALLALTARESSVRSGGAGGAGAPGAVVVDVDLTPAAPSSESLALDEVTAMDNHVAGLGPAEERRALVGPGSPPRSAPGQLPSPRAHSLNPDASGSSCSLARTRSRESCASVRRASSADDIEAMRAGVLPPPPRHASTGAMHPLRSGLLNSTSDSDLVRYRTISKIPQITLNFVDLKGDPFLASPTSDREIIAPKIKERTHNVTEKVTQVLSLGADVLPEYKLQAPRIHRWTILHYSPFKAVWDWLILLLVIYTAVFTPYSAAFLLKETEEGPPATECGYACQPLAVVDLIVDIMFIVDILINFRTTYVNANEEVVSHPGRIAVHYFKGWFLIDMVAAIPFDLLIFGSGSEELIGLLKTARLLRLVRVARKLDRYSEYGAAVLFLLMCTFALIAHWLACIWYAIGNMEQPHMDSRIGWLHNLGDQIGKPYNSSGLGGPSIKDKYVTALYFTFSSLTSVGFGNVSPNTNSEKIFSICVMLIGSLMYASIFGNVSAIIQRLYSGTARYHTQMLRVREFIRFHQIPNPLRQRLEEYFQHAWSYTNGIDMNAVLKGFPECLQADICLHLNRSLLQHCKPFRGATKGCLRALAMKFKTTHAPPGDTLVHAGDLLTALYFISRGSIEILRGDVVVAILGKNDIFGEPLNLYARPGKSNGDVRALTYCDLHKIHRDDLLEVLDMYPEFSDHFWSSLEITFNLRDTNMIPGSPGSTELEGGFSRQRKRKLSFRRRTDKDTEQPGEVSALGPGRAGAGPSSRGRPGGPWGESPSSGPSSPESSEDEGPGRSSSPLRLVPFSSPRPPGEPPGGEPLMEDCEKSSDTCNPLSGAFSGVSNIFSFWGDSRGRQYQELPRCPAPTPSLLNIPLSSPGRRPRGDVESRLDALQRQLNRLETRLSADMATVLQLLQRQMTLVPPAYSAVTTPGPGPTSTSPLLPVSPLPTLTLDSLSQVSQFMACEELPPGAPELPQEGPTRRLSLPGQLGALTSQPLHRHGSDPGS

SMILES	hERG current change (%, negative = inhibition) at 10uM
O=C(Nc1ccc(F)cc1F)C1CCN(S(=O)(=O)c2cccnc2)CC1	-1.85%
CCC(=O)NNc1ncnc2c1cnn2-c1cccc(C)c1	7.93%
O=C1CN(O)C=C2N=c3ccccc3=C2N1c1ccc([N+](=O)[O-])cc1	-26.6%
O=C(NCc1ccc(OC(F)(F)F)cc1)C1CC(c2c(Cl)cccc2Cl)=NO1 (centres unmarked)	-13.3%
C=CCn1cnc2scc(-c3ccc(OC)cc3)c2c1=O	-5.72%
CCOc1ccc(C(=O)COC(=O)CC)cc1	4.46%
CN(C)Cc1c(C(=O)N/N=C/c2ccccc2OCc2ccc(F)cc2)nnn1-c1nonc1N	32%
COc1ccccc1N1CCN(S(=O)(=O)c2cc(C(F)(F)F)cc(C(F)(F)F)c2)CC1	11.5%
CC(=O)CCc1ccc2oc(C(=O)O)c(C)c2c1	-1.43%
N#C/C(=N\Nc1ccc([N+](=O)[O-])cc1)C(N)=S	13.4%
CSc1nc2sc(-c3ccccc3)cc2c(=O)n1N	17.4%
COc1ccc(-c2csc(NC(C)c3nc4cc(C(=O)NCCCO)ccc4n3Cc3ccc(C)cc3)n2)cc1 (centres unmarked)	9.34%
C(=C(c1ccccc1)c1ccccc1)c1ccccn1	-4.2%
Cc1ccc(-n2nc(C)c3c(C)c(CCC(=O)NCc4ccccc4)c(C)nc32)cc1	10.5%
CCOC(=O)c1sc2ncn(/N=C/c3ccc(O)cc3)c(=O)c2c1C	12.7%
CCCCCOC(=O)c1c(N)n(CCOC)c2nc3ccccc3nc12	-70.2%
COc1ccc(CNC(=O)CN2CCC(C(=O)c3ccc(OC)cc3)CC2)cc1	-58%
FC(F)(F)c1ccc(CN2C[C@@H]3C(c4ccccc4)C4(c5cccnc5)CC3(C4)[C@H]2c2ccccc2)cc1 (some centres unmarked)	-23.7%
Cc1ccc(-c2nnc3c4ccccc4c(C)nn23)cc1S(=O)(=O)N1CCN(CCO)CC1	-32.9%
O=C(COc1ccc(S(=O)(=O)NC2CCCCC2)cc1Cl)NCc1cccnc1	-5.45%
CCC(=O)c1ccc(OC(=O)c2ccc(Br)o2)cc1	4.68%
CN(C(=O)c1ccc(NC(=O)C2CC=CCC2C(=O)O)cc1)c1ccccc1 (centres unmarked)	16.7%

SMILES	hERG current change (%, negative = inhibition) at 10uM
CCc1ccc(NC(=O)CNC(=O)c2cn(-c3ccccc3OC)c(=O)c3ccccc23)cc1	-10.6%
O=C(c1cccc([N+](=O)[O-])c1)N1CCN(c2ccc(N3CCOCC3)nn2)CC1	-24.2%
Cc1ccc(C(=O)C(C)OC(=O)c2cc3cc([N+](=O)[O-])ccc3oc2=O)cc1 (centres unmarked)	-41.2%
O=c1[nH]c2ccccc2c2nc(-c3cccc(S(=O)(=O)N4CCCC4)c3)nn12	21.2%
Cc1ccc(N(CC(=O)N2CCCCC2)S(=O)(=O)c2ccc(C)cc2)cc1	-20.9%
CCOC(=O)C1=C(C)C(c2ccc(OC)cc2)NC(=O)N1 (centres unmarked)	9.3%
S=C(c1ccc(N2CCOCC2)cc1)N1CCOCC1	22.7%
CCOc1ccc(C(=O)NC(=S)Nc2ccccc2OC)cc1[N+](=O)[O-]	0.902%
Cc1cc(C)c(NC(=O)NC2CCCCC2)c(C)c1	7.47%
CC(C)c1ccc(C2c3[nH]c4ccccc4c3C[C@H]3C(=O)N(c4ccccc4C(=O)N4CCC[C@@H]4C(=O)O)C(=O)N23)cc1 (some centres unmarked)	7.36%
O=C(c1cc(-c2ccncc2)nc2ccccc12)N1CCN(c2ccccc2O)CC1	-64.3%
Cc1ccc(Oc2nnc(-c3cccs3)c3ccccc23)cc1C	-5.3%
Cc1ccc(S(=O)(=O)N2CCN(C(=O)C3CSC4(C)CCC(=O)N34)CC2)cc1C (centres unmarked)	-13.8%
COC(=O)CSc1nnc(CNC(=O)c2ccc(S(=O)(=O)N3CCCCC3)cc2)n1C	9.59%
O=C1/C(=C/c2cccc([N+](=O)[O-])c2)Oc2cc(O)ccc21	27%
Cc1cc(C)n2nc(C(=O)NC3CCCc4ccccc43)nc2n1 (centres unmarked)	15.1%
N#CCc1nnc2n1-c1ccccc1CCC2	-9.5%
COc1c(C)cc(C(=O)C2CCCN(Cc3cnc(N4CCOCC4)s3)C2)cc1C (centres unmarked)	-8.64%
COC(=O)C1=C(C)OC(N)=C(C#N)C1c1ccsc1 (centres unmarked)	-0.334%
O=C1c2cccc3c(Cl)ccc(c23)C(=O)N1O	11.1%
Cc1cc(C)nc(/N=C(\N)Nc2ccc(S(N)(=O)=O)cc2)n1	14.9%
O=C(CSc1nc2[nH]ncc2c(=O)[nH]1)Nc1ccc(Cl)c(Cl)c1	6.06%

SMILES	hERG current change (%, negative = inhibition) at 10uM
Cc1[nH][nH]c(=O)c1C(c1ccc(-c2cccc(Cl)c2)o1)c1c(C)[nH][nH]c1=O	-2.76%
COC(=O)c1c(NC(=O)CSc2nnc3ccccn23)sc2c1CCC2	-45.5%
COc1ccccc1C1(CC(=O)O)CCOC(C(C)C)C1 (centres unmarked)	-28.1%
COc1ccc(C2N(c3cc(Cl)ccc3OC)C(=O)C3CCCN32)c(OC)c1 (centres unmarked)	-4.23%
COc1ccc(OC)c(/C=N/NC(=O)Cc2nc3ccccc3[nH]2)c1	5.63%
CC(C)c1ccc(C(C)NCCS(=O)(=O)c2ccc(Cl)cc2)cc1 (centres unmarked)	-25.8%
COC(=O)c1ccc(/C=C/c2c(-c3ccc(OC)cc3)oc3ccc(N4CCOCC4)cc23)cc1	25.7%
COCCSc1ccccc1C(=O)N1CCc2ccccc21	15.1%
CCC(C)NC(=O)C1CCC(=O)N(c2ccc3c(c2)OCO3)C1c1ccc(OC)cc1 (centres unmarked)	11.9%
CC1(C)CC(=O)C(C=NCC(N)=O)=C(O)C1	-19.5%
O=C1Nc2c(ccc(Cl)c2Cl)C(=O)C1(F)c1ccccc1 (centres unmarked)	1.54%
O=C(O)c1cc2c(cc1NC(=O)C1CCCC1)OCCO2	12.9%
CC(=O)c1ccccc1NC(=O)CCCNC(=O)c1ccc(Cl)cc1	-20.1%
COc1ccccc1C(=O)C1CCCN(C(=O)Nc2ccccc2F)C1 (centres unmarked)	37.3%
CCOC(=O)C(=O)N=Nc1c(O)[nH]c2ccccc12	2.03%
N#CC1=C(N)C(C#N)(C#N)[C@H](c2ccsc2)[C@H]2COCC=C12	-10.9%
O=C(Nc1ccc(Oc2ccc(S(=O)(=O)N3CCOCC3)cn2)cc1)c1ccco1	-1.73%
CC(C)(C)c1cc(C(=O)N/N=C/c2ccc([N+](=O)[O-])s2)n[nH]1	9.21%
Clc1ccc(CNc2ccc(CNc3ncn[nH]3)cc2)c(Cl)c1	5.43%
CCc1ccc(NC(=O)CSc2ccccn2)cc1	-9.68%
COc1ccc(-c2nc(N=Nc3ccc(O)cc3)n[nH]2)cc1	-4.36%
COc1ccc2oc(-c3ccc(C)c(NC(=O)CSc4ccc(Cl)cc4)c3)nc2c1	10.8%

SMILES	hERG current change (%, negative = inhibition) at 10uM
CCc1ccc(NC(=O)c2ccccc2NC(=O)C2CCCO2)cc1 (centres unmarked)	-18.3%
C=CCN(C(=O)CCC(=O)Nc1cc(C)on1)C(C(=O)NC1CCCC1)c1ccc(Cl)cc1 (centres unmarked)	-56.3%
COc1ccc(N2CCN(C3CC(=O)NC3=O)CC2)cc1 (centres unmarked)	6.47%
CSc1cccc(NC(=O)c2cc(S(=O)(=O)N3CCCCC3)c[nH]2)c1	14.7%
COc1cc(NC(=O)C2CCC(CNS(=O)(=O)c3csc(C(N)=O)c3)CC2)cc(OC)c1 (centres unmarked)	16.5%
N#Cc1c(NC(=O)c2ccncc2)sc2c1CCC2	4.22%
COC(=O)c1ccc(C(=O)Nc2nc3cc(N)c(C)cc3s2)cc1	24%
Cc1ccc(/C=N/NC(=O)CNC(=O)c2cccs2)o1	39.3%
CCOc1cc2c(cc1OCC)CN(C(=O)c1cccc(S(=O)(=O)N3CCCC3)c1)CC2	-8.98%
COc1ccc(C2Nc3ccccc3C(=O)N2c2ccc(F)cc2)cc1Cn1nnc2ccccc21 (centres unmarked)	-6.35%
CC(C)CN1CCN(Cc2cc(F)ccc2-n2cccn2)CC1CCO (centres unmarked)	-6.87%
Cc1cccn2cc(CCNS(=O)(=O)c3cccc([N+](=O)[O-])c3)nc12	-14%
COc1cc(C(=O)NCCC(=O)NC2CCCCC2)cc(OC)c1OC	13.8%
CC(C)NC(=O)c1c(CSc2ccc(Cl)cc2)noc1C(=O)NCc1ccccc1	2.92%
Cn1c(SCC(=O)NC2CC2)nnc1C1CC1	-10.2%
COc1ccc(OC)c(C(c2nnnn2C2CCCC2)N2CCN(c3ccc(F)cc3)CC2)c1 (centres unmarked)	-40.7%
Cc1ccc2c(c1)C(O)(C1COC(C)(C)CC1=O)C(=O)N2C (centres unmarked)	-6.72%
COC(=O)COc1ccc(/C=N/NC(=O)CN(c2ccccc2OC)S(=O)(=O)c2ccccc2)cc1	-32.7%
O=c1[nH]c(/C=C/c2ccc(OC(F)F)cc2)nc2c1cnn2-c1ccccc1	23.4%
S=C(Nc1ccc(OCc2ccccc2)cc1)Nc1cccc(Cl)c1Cl	1.73%
